# From the supplement of paper PMC8728848
# The other results are listed elsewhere or left out.
# B1: P-Selectin (Mus musculus), Q01102 (protein)
# chain: MAGCPKGSWTPRLRSVILGGAQLIWFSALISELVNQKEVAAWTYNYSTKAYSWNNSRVFCRRHFTDLVAIQNKNEIAHLNDVIPFFNSYYWIGIRKINNKWTWVGTNKTLTEEAENWADNEPNNKKNNQDCVEIYIKSNSAPGKWNDEPCFKRKRALCYTASCQDMSCSNQGECIETIGSYTCSCYPGFYGPECEYVKECGKVNIPQHVLMNCSHPLGEFSFNSQCTFSCAEGYELDGPGELQCLASGIWTNNPPKCDAVQCQSLEAPPHGTMACMHPIAAFAYDSSCKFECQPGYRARGSNTLHCTGSGQWSEPLPTCEAIACEPPEIPIHGSMDCVPSTGTFGYNSSCTFLCAEGFVLKGNDAIQCADSGQWTAPAPFCEALQCPEFPVPSKAQVNCSDPFGTLTYQSVCSFSCDEGSLLVGASVIRCLATGHWNGAPPECQAVSCAPMLSPENGSMTCVQPLGNSTYKSTCQFMCDEGFYLSGPERLDCSPSGHWTGTPPTCEAIKCPGIFAPEQGNLDCSHVHGEFGVGSICHFSCNEDFELLGSENVECTVSGRWSAPPPTCKGITSLPAPAVRCPALTTPGQGTMSCQHHLGSFGPNTTCYFGCKTGFTLRGANSLRCRASGQWTAVTPMCRAVKCSELHMDTAVAMNCSNPWGNFSYGSTCTFQCPEGQSLNGSVRATCREDGHWSDAMPTCQAGTLTIQEALTYLGGAVASTTGLAVGGTLLALLRKRLRKKDDGKCPLNPHSHLGTYGVFTNAAYDPTP
# Tests used:
# Assay in all cases: glycan array binding signal (z-score within array); higher = stronger binding
# Details in all cases: glycan notation: IUPAC condensed, linker removed
# [1] = molecular target: Neu5Gc(a2-3)Gal(b1-4)[Fuc(a1-3)]GlcNAc
# Summary of the method: (§1)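 The Consortium for Functional Glycomics database supplied 3228 glycan arrays, of which those lacking an available protein sequence were dropped. The binding signal, a within-array Z-score, was averaged across arrays of the same protein sequence and across linkers. Negative scores can be read as non-binding.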
# [2] = molecular target: Neu5Gc(a2-6)Gal(b1-4)GlcNAc
# Summary of the method: as §1
# Neu5Gc(a2-6)GalNAc = molecular target: Neu5Gc(a2-6)GalNAc
# Summary of the method: as §1
# [3] = molecular target: Neu5Gc(b2-6)Gal(b1-4)GlcNAc
# Summary of the method: as §1
binder,measurement,setting,value
B1,glycan array binding signal (z-score),[1],3.15
same,glycan array binding signal (z-score),[2],-0.179
same,glycan array binding signal (z-score),Neu5Gc(a2-6)GalNAc,-0.384
same,glycan array binding signal (z-score),[3],-0.329
